Laboratory results as given in publication PMC12350670 (2025).

Tests used:
Experiment in all cases: BLI
[1] = biological target: H15-Fc (anti-FAP VNAR H15 fused to the Fc of human IgG1) (nurse shark (Ginglyomostoma cirratum))
[2] = biological target: NGS2405-Fc (anti-FAP VNAR NGS2405 fused to the Fc of human IgG1) (nurse shark (Ginglyomostoma cirratum))
[3] = biological target: H17-Fc (anti-FAP VNAR H17 fused to the Fc of human IgG1) (nurse shark (Ginglyomostoma cirratum))

Kd [1]: 1.28 nM
Kd [2]: 0.356 nM
Kd [3]: 0.539 nM
B1: recombinant human fibroblast activation protein (hFAP) (enzyme)
chain: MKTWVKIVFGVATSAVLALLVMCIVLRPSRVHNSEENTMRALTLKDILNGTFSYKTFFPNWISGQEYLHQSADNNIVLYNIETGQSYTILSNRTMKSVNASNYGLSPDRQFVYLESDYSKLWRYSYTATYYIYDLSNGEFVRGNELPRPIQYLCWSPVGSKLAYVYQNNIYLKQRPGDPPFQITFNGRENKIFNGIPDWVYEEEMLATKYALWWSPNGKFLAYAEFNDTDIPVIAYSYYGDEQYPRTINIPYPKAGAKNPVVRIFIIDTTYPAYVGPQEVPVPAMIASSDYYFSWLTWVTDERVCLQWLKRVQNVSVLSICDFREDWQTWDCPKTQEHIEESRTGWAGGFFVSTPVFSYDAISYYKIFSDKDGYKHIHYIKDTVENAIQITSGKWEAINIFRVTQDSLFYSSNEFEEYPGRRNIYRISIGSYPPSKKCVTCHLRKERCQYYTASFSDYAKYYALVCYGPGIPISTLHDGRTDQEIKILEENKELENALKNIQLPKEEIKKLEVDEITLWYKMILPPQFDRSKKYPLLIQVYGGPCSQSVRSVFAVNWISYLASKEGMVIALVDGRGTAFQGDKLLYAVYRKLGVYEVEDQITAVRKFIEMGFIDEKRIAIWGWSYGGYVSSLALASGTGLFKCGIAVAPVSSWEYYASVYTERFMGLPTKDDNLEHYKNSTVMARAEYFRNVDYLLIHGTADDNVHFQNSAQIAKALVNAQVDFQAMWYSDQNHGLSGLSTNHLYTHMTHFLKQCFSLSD
modifications: biotin (EZ-link NHS-PEG4-biotin) for BLI and ELISA
